This is an account of results in the antibiotic and cytotoxicity screens of Wong et al. (2023).

The list shows a part of the results.

The assay has as its system HSkMC (human skeletal muscle cells). Briefly: cytotoxicity call (relative viability < 0.9). Conditions: 10 µM.
Regarding `Cn1cnc(S(=O)(=O)N2C[C@H](O)COC[C@@H]3O[C@@H](CC(=O)N4CCN(c5ccccc5)CC4)CC[C@H]32)c1`, the cytotoxicity call is “inactive”. In the case of `C[C@H](CO)N1C[C@H](C)[C@H](CN(C)C(=O)NC2CCCCC2)Oc2ccc(NC(=O)Cn3cnnn3)cc2C1=O`, the cytotoxicity call is “inactive”.

Turning to `COCC#Cc1cnc2c(c1)C(=O)N([C@@H](C)CO)C[C@@H](C)[C@@H](CN(C)S(=O)(=O)c1cccc(OC)c1)O2`, the cytotoxicity call is “inactive”. Turning to `C[C@@H]1CN([C@H](C)CO)C(=O)c2cc(NC(=O)CCCN(C)C)ccc2O[C@@H]1CN(C)C(=O)Nc1ccc(F)cc1`, the cytotoxicity call was “inactive”. On to `CO[C@H]1CN(C)C(=O)c2ccc(NS(C)(=O)=O)cc2OC[C@@H](C)N(C(=O)CN(C)C)C[C@H]1C`, for which the cytotoxicity call is “inactive”. In the case of `Cn1c(=O)n2n(c1=O)[C@H](C1CC1)C=C1CN3[C@@H]([C@H](Cc4ccccc4)OC(=O)[C@@H]3COC(=O)NCCCCCC(=O)NO)[C@@H]12` it was “inactive”; in that of `O=P(O)(O)C(O)(Cn1ccnc1)P(=O)(O)O`, “inactive”. With `COc1ccc(NC(=O)Nc2ccc3c(c2)C(=O)N([C@H](C)CO)C[C@@H](C)[C@@H](CN(C)Cc2ccc(Cl)c(Cl)c2)OCCCC[C@H](C)O3)cc1`, the cytotoxicity call was “inactive”. For `C[C@@H]1CN([C@@H](C)CO)C(=O)Cc2cc(NS(=O)(=O)c3ccc(F)cc3)ccc2O[C@H]1CN(C)S(=O)(=O)c1cccs1`, the cytotoxicity call was “inactive”. As to `C[C@@H]1CN([C@@H](C)CO)C(=O)c2cc(NS(=O)(=O)c3ccc(F)cc3)ccc2O[C@@H](C)CCCCO[C@H]1CN(C)Cc1ccccc1`, the cytotoxicity call was “inactive”. Regarding `C[C@H](CO)N1C[C@H](C)[C@@H](CN(C)Cc2ccc(C(=O)Nc3ccccc3N)cc2)Oc2c(NC(=O)Nc3ccc(C(F)(F)F)cc3)cccc2C1=O`, the cytotoxicity call is “inactive”. Regarding `C[C@@H]1CN([C@H](C)CO)C(=O)c2cc(NC(=O)Cc3ccccc3)ccc2O[C@@H]1CN(C)C(=O)Nc1ccc(C(F)(F)F)cc1`, the cytotoxicity call is “inactive”. Regarding `Cc1noc(C)c1NC(=O)Nc1ccc2c(c1)C(=O)N([C@@H](C)CO)C[C@H](C)[C@H](CN(C)C(=O)C1CCCCC1)OCCCC[C@@H](C)O2`, the cytotoxicity call is “inactive”. `C[C@@H]1CN([C@@H](C)CO)S(=O)(=O)c2ccc(C#CCN(C)C)cc2O[C@H]1CN(C)Cc1ccc2c(c1)OCO2`: the cytotoxicity call is “inactive”. The value for `COc1ccccc1S(=O)(=O)N(C)C[C@H]1Oc2cc(C#CCC(C)C)ccc2S(=O)(=O)N([C@@H](C)CO)C[C@H]1C` was “inactive”. For `Cc1ccc(S(=O)(=O)Nc2cccc3c2O[C@@H](CN(C)S(=O)(=O)c2cn(C)cn2)[C@H](C)CN([C@@H](C)CO)C3=O)cc1`, the cytotoxicity call was “inactive”. The value for `C[C@@H]1CN([C@H](C)CO)C(=O)c2cc(NC(=O)Nc3ccc(F)cc3)ccc2O[C@@H](C)CCCCO[C@@H]1CN(C)C(=O)c1ccccc1` was “inactive”; that for `C[C@H](CO)N1C[C@H](C)[C@@H](CN(C)Cc2ccc(C(=O)Nc3ccccc3N)cc2)Oc2ccc(NC(=O)CCN3CCOCC3)cc2CC1=O` was “inactive”; that for `O=C(CCCCCCC(=O)N/N=C/[C@@H](O)[C@H](O)[C@H](O)CO)NO` was “inactive”. In the case of `CS(=O)(=O)CCNCc1ccc(-c2ccc3ncnc(Nc4ccc(OCc5cccc(F)c5)c(Cl)c4)c3c2)o1`, the cytotoxicity call was “active”. As to `COc1ccc(S(=O)(=O)Nc2ccc3c(c2)C(=O)N([C@@H](C)CO)C[C@H](C)[C@H](CN(C)S(=O)(=O)c2cn(C)cn2)OCCCC[C@@H](C)O3)cc1`, the cytotoxicity call is “inactive”.

As for `C[C@@H]1CN([C@H](C)CO)C(=O)Cc2cc(NC(=O)NC3CCCCC3)ccc2O[C@@H]1CN(C)Cc1ccc(Cl)c(Cl)c1`, the cytotoxicity call was “active”. With `COc1ccc(S(=O)(=O)N(C)C[C@@H]2Oc3c(NS(=O)(=O)c4ccc(F)cc4)cccc3C(=O)N([C@@H](C)CO)C[C@H]2C)cc1`, the cytotoxicity call was “inactive”. As for `C[C@H](CO)N1C[C@H](C)[C@@H](CN(C)Cc2ccc(Cl)c(Cl)c2)Oc2ccc(NC(=O)Nc3ccccc3)cc2C1=O`, the cytotoxicity call is “inactive”. As to `NNC(=O)c1cccc(Cn2cccn2)c1`, the cytotoxicity call is “inactive”. `CC(C)(C)[S@@](=O)N1Cc2cc(C(=O)N3CCc4ccccc4C3)nc(-c3cccc(-c4ccncc4)c3)c2[C@H]1CCO`: the cytotoxicity call was “inactive”. The value for `C[C@@H]1CN([C@H](C)CO)C(=O)c2c(c3ccccc3n2C)-c2ccccc2CO[C@@H]1CN(C)C(=O)N[C@H](C)c1ccccc1` was “inactive”; that for `C[C@@H]1CCCCO[C@@H](CN(C)Cc2ccc(C(=O)O)cc2)[C@H](C)CN([C@@H](C)CO)C(=O)c2cc(NC(=O)Nc3ccc(C(F)(F)F)cc3)ccc2O1` was “inactive”; that for `C[C@H]1CN([C@@H](C)CO)C(=O)c2cc(Br)cnc2O[C@H]1CN(C)S(=O)(=O)c1ccc(F)cc1` was “inactive”. As for `C[C@@H]1CN([C@H](C)CO)C(=O)c2cc(NS(=O)(=O)c3ccc(Cl)cc3)ccc2O[C@H]1CN(C)S(=O)(=O)c1cn(C)cn1`, the cytotoxicity call is “inactive”. The value for `O=C(CN1CCC2(CC1)OCCC[C@@H]2O)N1CCOCC1` was “inactive”. With `Cc1noc(C)c1S(=O)(=O)Nc1ccc2c(c1)CC(=O)N([C@@H](C)CO)C[C@@H](C)[C@H](CN(C)Cc1ccncc1)O2`, the cytotoxicity call was “inactive”. For `C=C1c2cccc(O)c2C(=O)C2=C(O)C3(O)C(=O)C(C(N)=O)=C(O)C(N(C)C)C3C(O)C12.Cl` (stereo not given), the cytotoxicity call was “inactive”.

Take `COc1ccc(S(=O)(=O)Nc2ccc3c(c2)CC(=O)N([C@@H](C)CO)C[C@@H](C)[C@H](CN(C)S(=O)(=O)c2ccc(F)cc2)O3)cc1`: the cytotoxicity call was “inactive”. In the case of `Cc1ccc(S(=O)(=O)N(C)C[C@@H]2OCCCC[C@H](C)Oc3ccc(NC(=O)NC4CCCCC4)cc3C(=O)N([C@H](C)CO)C[C@@H]2C)cc1`, the cytotoxicity call is “inactive”. In the case of `c1cnc2c(SCc3nc4ccccc4s3)cccc2c1` it was “active”; in that of `C[C@@H]1CCCCO[C@@H](CN(C)Cc2ccncc2)[C@@H](C)CN([C@H](C)CO)C(=O)c2cc(NC(=O)CCC(F)(F)F)ccc2O1`, “inactive”. The value for `CC(=O)N1CCN(CC(=O)NS(=O)(=O)c2ccccc2)CC1` was “inactive”; that for `C[C@H](CO)N1C[C@H](C)[C@H](CN(C)S(=O)(=O)c2cccs2)Oc2c(NC(=O)c3cnccn3)cccc2C1=O` was “inactive”. As to `O=C1CCNC(=O)N1`, the cytotoxicity call is “inactive”.
